Among the data in PubChem BioAssay AID485344 (National Center for Advancing Translational Sciences (NCATS), 2010) are inhibition values, retold here.

Among all 340,000 compounds or so, about 6,900 (2%) were called active. Cut-off read from the data, not from the text of the source: active = inhibition above about 30%; inactive = below that, where a call was filed. The list shows a part of the results, in another mix than the full data. Entries without a call were filed so in the source.

Broadly, the inhibition is the relative decrease from the control value, in per cent.

UniProt P14416, sequence (P14416 whole entry, looked up): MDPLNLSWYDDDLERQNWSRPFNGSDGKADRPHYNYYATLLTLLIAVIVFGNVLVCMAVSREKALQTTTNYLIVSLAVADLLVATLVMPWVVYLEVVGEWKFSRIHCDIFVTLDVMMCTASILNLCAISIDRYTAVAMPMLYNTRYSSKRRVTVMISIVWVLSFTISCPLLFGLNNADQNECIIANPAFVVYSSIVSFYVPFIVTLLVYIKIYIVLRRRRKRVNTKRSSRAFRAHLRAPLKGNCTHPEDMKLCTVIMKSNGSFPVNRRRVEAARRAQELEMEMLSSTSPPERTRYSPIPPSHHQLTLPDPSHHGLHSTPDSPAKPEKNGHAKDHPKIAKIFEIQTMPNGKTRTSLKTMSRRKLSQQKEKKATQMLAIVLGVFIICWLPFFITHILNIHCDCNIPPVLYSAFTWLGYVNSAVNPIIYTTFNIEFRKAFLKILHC

The target of this experiment is D(2) dopamine receptor (Homo sapiens) (UniProt P14416). The experiment in a line: HTS Assay for Allosteric Antagonists of the Human D2 Dopamine Receptor: Primary Screen for Antagonists. Note: 0% is about no effect. The following applies: HEK293 TREx D2 cells, calcium flux, dopamine EC80; at 10 µM; stronger effect = higher value. In outline:
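Calcium flux kinetic readout in an inducible HEK293 TREx D2 line plated overnight at 30 C. After 180 s compound exposure, an EC80 dopamine challenge follows with another 180 s kinetic read to detect antagonism.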
Background: A change in cytosolic calcium serves as a functional read-out for many receptors and channels.
Take `CN(C)/C=N/c1ncc(C(=O)c2ccc(Cl)cc2)s1`: the inhibition was active: 56.6%.
As for `COc1ccc2c(c1)c1c(c(=O)n(Cc3ccccc3)c(=O)n1Cc1cccc(Cl)c1)n2C`, the inhibition worked out at 6.03%.
For `Cc1cc(C)c2oc(-c3ccc(Cl)c(NC(=O)c4cccs4)c3)nc2c1`, the inhibition is -9.75%.
Turning to `CC(=O)N1CCc2cc(S(=O)(=O)NC(Cc3ccccc3)C(=O)Nc3cc(C)ccc3C)ccc21` (configuration not stated), the inhibition was -8.53%.
Then `CCOc1ccc(CNC(=O)c2nn(-c3ccc(OC)cc3)c(=O)c3c2c2ccccc2n3C)cc1`, with -0.727%; and `NC(=O)CSc1ncc2c(n1)-c1ccccc1N(Cc1ccc(F)cc1)S2(=O)=O`, with -15%.
For the molecule `CC1=C(c2ccc(C)cc2)S(=O)(=O)N(Cc2ccc(C(=O)Nc3ccc(C)c(F)c3)cc2)C1=O`, the inhibition turned out to be 3.59%.
`CCOc1ccc(C(=O)Nc2ccc3nc(SCC(=O)N4CCc5ccccc54)sc3c2)cc1`: the inhibition was determined as 9.47%.
With `Cc1ccc(-c2ccc(CCC(=O)O)n2-c2ccc(C(N)=O)cc2)cc1`, the inhibition was -4.42%.
Then `CCOc1ccc2nc(NC(=O)Nc3ccccc3)sc2c1`, with active: 31.6%.
Then `Cc1oc(-c2cccs2)nc1CN1CCC(CO)(CCOc2ccccc2)CC1`, with active: 54.1%; and `O=C(NCc1ccccc1)c1cccn1-c1nnc(N2CCCC2)s1`, with -8.72%; and `CN1C(=O)c2ccccc2Sc2ccc(NC(=O)N3CCN(c4ccccc4)CC3)cc21`, with 27.3%.
Take `COc1ccc(-n2nnnc2C2CCN(S(=O)(=O)c3ccc(C)cc3)CC2)cc1`: the inhibition was -23.3%.
Next, `COc1cc2c(cc1OC)C(COc1ccc3c(C)cc(=O)oc3c1)N(C(=O)c1ccccc1C)CC2` (configuration not stated): 16.7%.
As to `CC(NCc1ccc2c(c1)OCO2)C(=O)N1CCc2ccccc21` (configuration not stated), the inhibition was active: 43.6%.
`COc1ccc(OC)c(-n2nnc(-c3nc(-c4cc(OC)c(OC)c(OC)c4)no3)c2C)c1`: the inhibition worked out at 11.3%.
Turning to `COc1ccc(-c2nc3ccccc3n3c(-c4ccccc4)c4c(=O)n(C)c(=O)n(C)c4c23)cc1OC`, the inhibition was 9.67%.
For `O=c1oc2c3c(ccc2c2ccccc12)OCN(Cc1ccc(Cl)cc1)C3`, the inhibition is -0.537%.
Next, `OC1(c2ccc3c(c2)OCO3)CCN(Cc2ccc(F)cc2)CC1`: active: 73%; `Cc1ccc(CNC(=O)c2ccc(Cn3c(=O)c4ccccc4n(CC(=O)Nc4c(C)cc(C)cc4C)c3=O)cc2)cc1`: 6.8%; `O=C(NCC(c1cccs1)S(=O)(=O)c1cccs1)c1cccc(F)c1` (configuration not stated): 8.09%.
Then `Cc1ccccc1CSc1ccc(-c2cccs2)nn1`, with 10.8%; and `Cc1cccc(NC(=O)c2cc(S(=O)(=O)N3CCCCCC3)cn2C)c1C`, with -0.335%; and `Cc1ccc(NC(=O)Cn2cc(C(=O)C3CC3)c3ccccc32)cc1C`, with 4.69%.
Next, `Cc1ccc(Cc2cn3cc(-c4ccc(F)cc4)nc3s2)cc1`: -7.78%; `COc1ccc(-c2c(C)c3ccc(O)c(CN4CCCC4)c3oc2=O)cc1OC`: -9.41%; `COc1cccc(-c2cn3ncsc3n2)c1`: -2.09%.
As to `Cc1ccc(OCCSc2nc3ccc(NC(=O)c4ccc(F)cc4)cc3s2)cc1`, the inhibition was -17.1%.
Next, `CCCCNC(=S)N(C)/N=C/c1ccc(F)cc1`: active: 90.6%; `CCOC(=O)C(CC)Sc1c(CC)cnc2c1c(=O)n(C)c(=O)n2C` (configuration not stated): 0.402%.
`Cc1cccc(C(C)C)c1NC(=O)C(NS(=O)(=O)c1cccc2nsnc12)c1ccccc1` (configuration not stated): the inhibition amounted to 3.02%.
Then `CCc1ccc(CNC(=O)C2CCCN(S(=O)(=O)c3ccc4c(ccn4C)c3)C2)cc1` (configuration not stated), with -22.7%.
As for `COc1ccc(CNC(=O)CCc2nc(-c3ccc(OC)cc3)no2)cc1`, the inhibition is -12.3%.
Then `CC(=O)N1c2ccc(S(=O)(=O)N3CCC(C(=O)Nc4cccc(Cl)c4)CC3)cc2CC1C` (configuration not stated), with active: 41.2%.
Next, `Cc1cc(C)c2c(n1)sc1c(=O)n(-c3ccccc3C(F)(F)F)nnc12`: 28.3%; `CCSc1nc2c([nH]c3ccccc32)c(=O)n1-c1ccc(F)cc1`: 27.6%.
Next, `CCC(=O)N1CCc2cc(CNS(=O)(=O)c3cccs3)ccc21`: -18.9%; `CCCCOc1ccc(CNC(=O)c2ccc3c(c2)N(C)C(=O)C2CCCCN32)cc1` (configuration not stated): -2.52%.
For `CCOc1ccc(Nc2oc(/C=C/c3cccc(OC)c3)nc2C#N)cc1`, the inhibition is -8.5%.
Then `O=C(NC1CCN(Cc2ccccc2)CC1)c1cc(Br)c(Br)[nH]1`, with active: 78.3%; and `Clc1cccc(-c2cc3nc4c(c(N5CCN(c6cnccn6)CC5)n3n2)CCCC4)c1`, with active: 41.2%.
Then `CCCCCn1c(CCNC(=O)c2cccc(C)c2)nc2ccccc21`, with 2.58%; and `Cc1c(Cl)cccc1Nc1nc2ccc(C(=O)c3ccccc3)cc2n2cnnc12`, with 5.41%.
Next, `Cc1ccc(CNC(=O)CN2C(=O)C3(SCC(=O)N3c3ccc(F)cc3)c3ccccc32)cc1` (configuration not stated): 0.698%; `Cc1ccc(NC(=O)Cn2c(-c3cncs3)nc3ccccc32)c(Br)c1`: 14.5%.
As for `COc1ccc2c(c1)Cc1sc(NC(=O)c3cccc(Br)c3)nc1-2`, the inhibition was -24.4%.
Then `CC(=O)N1CCc2c(sc3c2c(=O)n(Cc2ccccc2)c(=O)n3Cc2cc(C)ccc2C)C1`, with -19.6%.
As to `CC1CN(C(=O)N2CCC(C(=O)NCCCc3ccccc3)CC2)c2ccccc2O1` (configuration not stated), the inhibition was 21.7%.
Next, `Cc1ccccc1/C=C(\C#N)c1nc(-c2ccc(Cl)cc2)cs1`: -9.38%; `Cc1csc2nc(-c3ccc(NS(=O)(=O)c4cc(F)ccc4F)cc3)cn12`: -16.2%; `CC1(C)Cc2cccc(OCC(O)CN3CCN(c4ccccn4)CC3)c2O1` (configuration not stated): active: 60.3%.
`COc1ccc(CCN2C(=O)CN(C3CCCCCC3)C(=O)C2c2ccc(OC(C)C)c(OC)c2)cc1OC` (configuration not stated): the inhibition turned out to be 8.9%.
Next, `CN(C(=O)c1ccc2c(Cl)c3c(nc2c1)CCC3)c1ccccc1F`: -15.7%; `COc1ccccc1C(=O)Nc1ccc(C(=O)OCc2cc(=O)n3nc(C)sc3n2)cc1`: 4.15%.
Next, `CCN(CC)C(=O)Cn1c(=O)n(-c2ccccc2)c(=O)c2c3c(sc21)CCC3`: -11.1%.
Next, `NS(=O)(=O)c1ccc(NC(=O)CSc2ccc3ccccc3n2)cc1`: -24.5%; `CC1CCC(C(=O)NC(C(=O)OCC(=O)c2ccc(Br)cc2)C(C)C)CC1` (configuration not stated): 6.49%; `Cc1ccc(CNS(=O)(=O)c2cc3c(cc2Cl)NC(=O)CO3)o1`: 3.77%.
Regarding `Cc1ccc(/C=C/c2onc(C)c2S(=O)(=O)N2CCC(C(=O)Nc3ccc(Br)c(C)c3)CC2)cc1`, the inhibition was -12.1%.
For the molecule `CCC(CC)C(=O)Nc1cc(-c2ccccc2F)nn1-c1ccccc1`, the inhibition is -0.759%.
Then `CNS(=O)(=O)c1cn(CC(=O)Nc2ccc(OC)cc2OC)cc1S(=O)(=O)NC`, with -7.47%.
